# Experimental data from publication PMC4336329 (PLoS ONE, 2015).
# The whole screen tested about 310,000 compounds, of which about 14,000 (4.5%) showed an effect of 50% or more. Effects have a minus sign here. The list shows a part of the results.
# Target: human ether-à-go-go-related gene (hERG) potassium channel (human, UniProt Q12809)
# Assay: primary screen, population patch clamp on CHO cells stably expressing hERG
# 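Note: peak tail current of the secondary pulse compared with the same well before compound.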
# Sequence of human ether-à-go-go-related gene (hERG) potassium channel (Q12809 whole entry, looked up): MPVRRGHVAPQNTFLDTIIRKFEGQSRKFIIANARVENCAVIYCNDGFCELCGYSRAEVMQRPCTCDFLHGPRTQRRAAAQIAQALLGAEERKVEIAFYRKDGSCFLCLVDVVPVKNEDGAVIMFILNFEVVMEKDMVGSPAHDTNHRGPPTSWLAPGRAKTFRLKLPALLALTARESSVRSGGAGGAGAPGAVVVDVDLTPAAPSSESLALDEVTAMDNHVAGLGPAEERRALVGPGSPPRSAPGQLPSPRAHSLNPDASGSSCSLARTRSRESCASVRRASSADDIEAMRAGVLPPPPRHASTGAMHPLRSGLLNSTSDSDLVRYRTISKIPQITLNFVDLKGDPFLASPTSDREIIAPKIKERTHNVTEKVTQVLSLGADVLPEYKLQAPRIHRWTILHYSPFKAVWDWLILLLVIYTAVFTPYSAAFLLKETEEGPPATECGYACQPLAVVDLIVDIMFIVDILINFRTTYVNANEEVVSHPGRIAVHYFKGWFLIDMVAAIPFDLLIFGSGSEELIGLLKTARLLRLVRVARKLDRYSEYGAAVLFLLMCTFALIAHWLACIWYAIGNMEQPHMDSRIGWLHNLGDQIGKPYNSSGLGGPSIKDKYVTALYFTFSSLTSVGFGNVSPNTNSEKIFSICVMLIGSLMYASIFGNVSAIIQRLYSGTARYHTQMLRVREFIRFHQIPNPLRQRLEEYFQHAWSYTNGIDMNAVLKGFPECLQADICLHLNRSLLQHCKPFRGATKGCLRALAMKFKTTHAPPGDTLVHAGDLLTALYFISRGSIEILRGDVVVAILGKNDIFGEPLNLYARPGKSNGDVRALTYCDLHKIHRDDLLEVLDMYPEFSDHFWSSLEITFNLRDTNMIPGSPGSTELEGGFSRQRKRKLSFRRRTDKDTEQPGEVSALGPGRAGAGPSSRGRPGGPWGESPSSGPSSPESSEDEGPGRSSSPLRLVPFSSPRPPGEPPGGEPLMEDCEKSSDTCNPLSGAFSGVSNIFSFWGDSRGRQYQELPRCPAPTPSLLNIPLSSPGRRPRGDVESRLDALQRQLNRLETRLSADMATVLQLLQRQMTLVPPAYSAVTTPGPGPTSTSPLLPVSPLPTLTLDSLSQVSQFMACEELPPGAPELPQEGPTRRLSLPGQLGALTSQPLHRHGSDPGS
row,SMILES,"hERG current change (%, negative = inhibition) at 10uM"
1,COc1cc2nc(N3CCN(C(=O)[C@H]4COc5ccccc5O4)CC3)nc(N)c2cc1OC,-37.7%
2,O=C(N/N=C(\c1ccccc1)c1ccccn1)c1cccc([N+](=O)[O-])c1,-65.6%
3,Cn1cc(C(=O)NC2CCCCCC2)c(=O)c2cc(S(=O)(=O)N3CCCC3)ccc21,-9.15%
4,Cc1cccc(CN(C)CCc2ccccn2)c1,-15.3%
5,CC1Cc2cc(/C(O)=C3\C(=O)C(=O)N(CCN(C)C)C3c3ccccc3F)ccc2O1 (stereo not drawn),2.94%
6,CN1CCC(NC(=O)CCc2ccccc2)CC1,34.3%
7,COc1ccc(CNC[C@@H](CCCCN(C)Cc2ccc(OC)cc2)N2C[C@H](c3ccccc3)N(CCc3ccc(Cl)c(Cl)c3)C(=O)C2=O)cc1,-80.3%
8,O=C(COC(=O)c1ccc2ncsc2c1)NCc1ccc(Cl)cc1,-4.62%
9,COc1ccc(CCN2C(=NC(C)=O)SC3CS(=O)(=O)CC32)cc1OC (stereo not drawn),-5.49%
10,CCOC(=O)C(CCC#N)(CCC#N)C(=O)OCC,8.69%
11,CCCc1nc2nc(C)c(NS(=O)(=O)c3ccc4c(c3)CCCC4)c(=O)n2[nH]1,12.5%
12,CCc1cccc(NC(=O)C2CCCN(S(=O)(=O)c3cnc[nH]3)C2)c1 (stereo not drawn),5.64%
13,COc1ccc(-c2noc(-c3ccccc3F)n2)cc1,4.74%
14,O=C(CSc1ncnc2ccccc12)c1cccs1,4.14%
15,Cc1cccc(/C(N)=N/OC(=O)CCc2ccccc2)c1,0.58%
16,CSc1nsc(SCC(=O)Nc2ccc(C(N)=O)cc2)n1,15.6%
17,Cc1ccccc1/C(N)=N/OC(=O)c1cccs1,-0.754%
18,Cn1c(N)c(C(=O)Nc2cccc(Cl)c2)c(=O)n(C)c1=O,21.2%
19,CCCCOc1cccc(OCC(=O)Nc2nc3ccccc3[nH]2)c1,30.1%

row,SMILES,"hERG current change (%, negative = inhibition) at 10uM"
1,COc1ccc(S(=O)(=O)N(CCCN2CCCC2=O)Cc2cc3c(C)ccc(C)c3[nH]c2=O)cc1,-36.1%
2,COc1ccc(CC(=O)NNS(=O)(=O)c2ccc([N+](=O)[O-])cc2)cc1OC,-4.78%
3,CCc1ccc(NC(=O)CSC2=C(C#N)C(c3ccco3)C3=C(CCCC3=O)N2)cc1 (stereo not drawn),-1.71%
4,COC(=O)c1sc(NC(=O)C2CCCO2)c(C(=O)OC)c1C (stereo not drawn),-8.24%
5,CN1CCN(C(=O)CCC(=O)c2ccc(F)cc2)CC1,8.49%
6,O=C(NN=C1CCC(c2ccccc2)CC1)c1ccccc1-n1cccc1 (stereo not drawn),17.3%
7,CCn1c(=O)c2ccccc2n2c(SCC(=O)NCc3cccs3)nnc12,-2.54%
8,CCCN(C(=O)COC(=O)c1nc2nc(C)cc(C)n2n1)C1CCS(=O)(=O)C1 (stereo not drawn),8.71%
9,O=C1[C@@H]2[C@H](C(=O)N1O)[C@H]1C=C[C@@H]2C1,-5.3%
10,CCCCOC(=O)Sc1nc2ccccc2o1,16.2%
11,CCc1ccc(-n2c(C)n[nH]c2=S)cc1,12.5%
12,CCOc1cccc(/C(O)=C2/C(=O)C(=O)N(Cc3ccco3)C2c2ccncc2)c1 (stereo not drawn),-0.69%
13,O=C(NC(C(=O)N/N=C/c1cccnc1)c1n[nH]c(=O)c2ccccc12)c1ccccc1 (stereo not drawn),21.8%
14,Cc1ccccc1OCC(=O)NCCCNC(=O)c1ccco1,3.07%
15,CCOC(=O)c1ccc(NC(=O)NC2CC3CCC(C2)N3C(=S)NC)cc1 (stereo not drawn),4.72%
16,COCCSc1nnc(NS(=O)(=O)c2ccc(C)cc2)s1,8.07%
17,COc1ccc(CCNC(=O)CC2COc3ccccc3O2)cc1OC (stereo not drawn),-7.91%
18,COc1ccc(C(=O)CC(=O)c2ccccc2)cc1,13.8%
19,CCN(CC)c1ccc(NC(=O)C2CC3CCC2C3)cc1 (stereo not drawn),-1.16%

row,SMILES,"hERG current change (%, negative = inhibition) at 10uM"
1,CCC/C(=N\O)c1c[nH]c2ccccc12,6%
2,CCN(c1ccccc1)S(=O)(=O)c1ccc(C(=O)N(C)CCc2ccc(OC)c(OC)c2)cc1,-13.8%
3,Cc1cc(OCC(=O)Nn2cnnc2)c(C)cc1Br,12.6%
4,COc1c(C(=O)NNC(=O)c2ccccc2Cl)csc1Br,-10.4%
5,O=c1cc(O)nc(SCc2ccccc2)[nH]1,4.74%
6,O=[N+]([O-])c1ccc(CSc2nnc(SCc3ccc(Cl)cc3)s2)cc1,16.8%
7,Cc1ccc(N2CC(C(=O)Nc3ccc(S(=O)(=O)Nc4nccc(C)n4)cc3)CC2=O)cc1 (stereo not drawn),3.17%
8,O=C(Nc1ccc(OC(=O)c2ccncc2)cc1)c1ccncc1,11.4%
9,O=C(CCc1ccccc1)NNC(=O)Nc1ccc(F)c(Cl)c1,-8.27%
10,CCN(CC(=O)Nc1c(F)cccc1F)C(=O)c1csc2c1CCCC2,7.01%
11,c1coc(CN=C2NC(=NCc3ccco3)c3ccccc32)c1,-66.4%
12,CCOc1cc(/C=C(\C#N)C(=O)Nc2cccc(C(=O)O)c2)cc(Br)c1OC(=O)c1ccc(OC)cc1,12.9%
13,COc1cccc(C2NC(=O)NC(C)=C2C(=O)Nc2cccc(C)c2C)c1 (stereo not drawn),5.71%
14,COCCCN1CC23C=CC(O2)C(C(=O)O)C3C1=O (stereo not drawn),3.86%
15,Cc1ccc(Nc2nc(CSc3nnc(-c4ccncc4)n3-c3ccccc3C)cs2)cc1,-6.91%
16,CCC1(C)CC(=O)N(c2ccc(F)c(Cl)c2)C(=O)C1,19.8%
17,COc1ccc2c(c1)c(CC(=O)O)c(C)n2C(=O)c1ccc(Cl)cc1,6.45%
18,COc1cc(C(C)=O)ccc1COc1ccc(C(=O)OCC(=O)NC2CCS(=O)(=O)C2)cc1OC (stereo not drawn),7.35%
19,COc1ccc(OC)c(NC(=O)c2cccc(N3C(=O)C4C5C=CC(C6CC56)C4C3=O)c2)c1 (stereo not drawn),-3.87%
